Reference: PubChem BioAssay AID504706 (National Center for Advancing Translational Sciences (NCATS), 2011)
Screen size: about 320,000 compounds; about 200 (0.062%) were called active. The inconclusive results got no clear call from the source; some entries with a clear call stand among them for comparison. Calls follow the shape of the dose curve; as a rule, active = well fitted activation curve with a large enough effect; inconclusive = small, poorly fitted or top-dose-only effect; inactive = no such curve, though single readings can be large or run the other way. Potencies of inconclusive entries are left out as doubtful fits.
Potency is read from the fitted curve at half-maximal effect; tags tell the direction and shape of the fitted curve.

Test: qHTS assay for re-activators of p53 using a Luc reporter; also: nearly all actives have a fitted effect of over 45% in size; as to activity change, positive = activation: % of control where 0% means no effect
Details: H1299 p53-A138V BP100-luciferase reporter, luminescence, 24 h; series mostly up to 92.2 µM; activity change, positive = activation: at the top concentration
Text: The p53 tumor suppressor plays a key role in suppression of tumorigenesis and in human carcinogenesis. It is frequently found inactivated in human cancers, mainly by point mutation. These point mutations are found in a wide variety of human cancers and a majority of them affect the DNA binding domain of the protein. The point mutations either alter native p53 conformation or abolish DNA contact. Additionally, cancer cells with p53 mutations are more resistant to chemo-radiation therapies. In order to find activators to reactivate this important protein, a cell-based screen for p53-dependent luciferase-reporter expression was developed. A p53-null H1299 lung cancer cell line was stably co-transfected with a temperature sensitive p53 mutant, p53-A138V, and a p53-responsive BP100-luciferase reporter. This cell model has previously been characterized in a gene chip profiling experiment for p53 activation. By lowering the culture temperature from 37 deg C (mutant p53 conformation) to 32 deg C (w.t. p53 conformation), a 30-60 fold increase in activation of luciferase activity is observed. At assay temperate, 37 deg C, basal reporter expression is very low and after the addition of detection reagent, a luminescent read-out is carried out. NIH Chemical Genomics Center [NCGC] NIH Molecular Libraries Probe Production Centers Network [MLPCN] MLPCN Grant: DA031088-01A1 Assay Provider (PI): Yi Sung, University of Michigan at Ann Arbor
5ul of 1000 cells per well are dispensed in all wells except column 4, into white solid-bottom TC-treated Kalypsys plates. The cells are kept in Opti-MEM and supplemented with 10% FBS and dispensed using a Multidrop (Thermo). Then using the Kalypsys pin-tool, 23nl of compounds are pinned. The compounds are starting concentration at 10mM, with 1:5 dilution, 4 points, and the control compound nocodazole is pinned in column 1 at 25mM, 1:3 dilution, in duplicate, 25mM nocodazole is pinned in column 2. Please note, all concentrations are working concentrations. 5ul of 1pM purified luciferase enzyme is dispensed using the Kalypsys dispenser in column 4. Plates are incubated for 24 hrs at 37 deg C, 5% CO2, and 95% humidity. Then 4ul of the detection reagent Amplite (ABD Bioquest) is added using the Kalypsys dispenser. Plates are incubated for 10 min at ambient room temperature and are then read on the ViewLux (Perkin Elmer) using a clear filter for a luminescent read-out.
For `COCCNC(=O)/C(C#N)=C/C(C)=C/c1ccccc1`, the Potency was inconclusive [activator, partial curve, poor fit]. In the case of `O=C(CSc1n[nH]c(=O)n1C1CC1)Nc1ccccc1`, the Potency is reported as inconclusive [activator, single point]. With `O=C(Oc1ccccc1C(=O)Nc1ccccc1)c1ccc(Br)c([N+](=O)[O-])c1` the Potency was inconclusive [activator, partial curve, poor fit]. For `Cc1cc(NC(=O)Cn2c(=O)oc3ccc(Cl)cc32)no1`, the “activity change, positive = activation” value was inactive: -8.61%. In the case of `Nc1nc(-c2cc3ccccc3o2)cs1`, the Potency is reported as inconclusive [activator, full curve, poor fit]. In the case of `CCC1=NN(C(=O)COc2ccccc2)C(O)(c2ccncc2)C1` (stereo not drawn), the “activity change, positive = activation” value is reported as inactive: -2.02%. For `CCOC(=O)c1[nH]c2ccc(OC)cc2c1NC(=O)c1ccccc1C(=O)O`, the Potency was inconclusive [activator, full curve]. In the case of `O=C(NCc1ccco1)c1cnccn1`, the Potency is reported as inconclusive [activator, partial curve, poor fit]. In the case of `COc1ccc(C(=O)Nc2cc(C(C)=O)c(/C=C/N(C)C)oc2=O)cc1`, the “activity change, positive = activation” value is reported as inactive: 8.23%. In the case of `CN(C)c1ccc(N=Nc2cccc3ccoc23)cc1`, the Potency is reported as inconclusive [activator, full curve, poor fit]. For `C=CCn1c(SCc2c(F)c(F)c(F)c(F)c2F)nc(O)cc1=O`, the “activity change, positive = activation” value was inactive: 29.7%. With `Fc1ccc(/C=C/c2nnc(-c3cccs3)o2)cc1` the Potency was inconclusive [activator, partial curve, poor fit]. In the case of `Cc1ccc(S(=O)(=O)C(c2ccccc2)c2c(C)noc2C)cc1` (stereo not drawn), the “activity change, positive = activation” value is reported as inactive: 0.945%. For `Cc1ccc(N2C(=O)C(CN3CCCC3)C2c2ccccc2)cc1` (stereo not drawn), the “activity change, positive = activation” value was inactive: 5.31%. For `O=C(c1ccco1)N1CCN(c2ccc(Cl)cc2)CC1`, the Potency was inconclusive [activator, partial curve, poor fit]. In the case of `N#CCCN(C(=O)COC(=O)c1cc2ccccc2oc1=O)c1ccccc1`, the Potency is reported as inconclusive [activator, single point]. With `c1nc(NCc2ccc3c(c2)OCO3)c2cc(-c3ccc4c(c3)OCCO4)ccc2n1` the “activity change, positive = activation” value was inactive: 6.37%. With `COc1ccc2cc(C#N)c(NC(C)C)nc2c1` the Potency was inconclusive [activator, partial curve, poor fit]. With `Cc1oc2c(C)c3oc(=O)c(CCC(=O)O)c(C)c3cc2c1-c1ccccc1` the “activity change, positive = activation” value was inactive: -0.607%. For `O=C(c1ccco1)N1CCN(C(c2ccccn2)c2nnnn2C2CCCC2)CC1` (stereo not drawn), the Potency was inconclusive [activator, full curve, poor fit]. In the case of `COc1ccc(NC(=O)COC(=O)c2ccc3ccccc3n2)cc1`, the “activity change, positive = activation” value is reported as inactive: 17.8%. With `Cc1nc2cc(-c3ccccc3)sc2c(=O)n1N` the “activity change, positive = activation” value was inactive: 17.4%. With `CC(=O)Nc1ccc(-n2c(C)ccc2-c2ccccc2)cc1` the Potency was inconclusive [activator, partial curve, poor fit]. For `COc1ccc(C(=O)/C=C/Nc2cc(C)on2)c(OC)c1`, the Potency was inconclusive [activator, partial curve, poor fit]. In the case of `O=C(Nc1cccc(Cl)c1)c1ccc(F)c(S(=O)(=O)N2CCN(c3ccccn3)CC2)c1`, the “activity change, positive = activation” value is reported as inactive: 15.3%. For `CSc1nc(-c2ccc(Cl)cc2Cl)[nH]c(=O)c1C#N`, the “activity change, positive = activation” value was inactive: -4.62%. With `COc1ccc(/C(N)=N/OC(=O)Cc2ccccc2)cc1` the Potency was inconclusive [activator, partial curve, poor fit]. For `COc1cc(C(=O)Nc2ccc3c(c2)C(=O)c2ccccc2C3=O)cc(OC)c1OC`, the “activity change, positive = activation” value was inactive: -2.7%. With `NC(=O)c1nn(CC(=O)Nc2cccc(S(=O)(=O)N3CCCCCC3)c2)c(=O)c2ccccc12` the “activity change, positive = activation” value was inactive: -21.1%. In the case of `Cc1ccc(-c2ccc(/C=C/C(=O)c3ccccc3)o2)cc1`, the Potency is reported as inconclusive [activator, full curve, poor fit]. In the case of `COc1ccc(-c2csc(NC(=O)COC(=O)c3ccc(Br)o3)n2)cc1`, the Potency is reported as inconclusive [activator, partial curve, poor fit]. For `O=C(CCl)Nc1ccc2c(c1)OCO2`, the “activity change, positive = activation” value was inactive: -10.3%. In the case of `Cc1nc(-c2ccc(NC(=O)c3ccccc3)cc2)cs1`, the “activity change, positive = activation” value is reported as inactive: -1.84%. For `O=C1NC(=Nc2ccccc2)S/C1=C/c1cccs1`, the Potency was inconclusive [activator, full curve, poor fit]. With `Cc1ccccc1/C=N/n1c(C2CCCCC2)n[nH]c1=S` the “activity change, positive = activation” value was inactive: 0.818%. With `O=C(CN1CCN(c2ccc(F)cc2)CC1)Nc1ccc(-n2cnnn2)cc1` the “activity change, positive = activation” value was inactive: 3.84%. For `Cc1ccc(C=C2C(=O)c3ccccc3C2=O)s1`, the Potency was inconclusive [activator, partial curve, poor fit]. For `Cc1ccc(Nc2nc3c(s2)CCC3)c(C)c1`, the Potency was inconclusive [activator, partial curve, poor fit]. In the case of `O=C(O)c1ccc(/C=C2\COc3ccccc3C2=O)cc1`, the Potency is reported as inconclusive [activator, partial curve, poor fit]. In the case of `O=C1C(c2ccnc3ccccc23)=C(O)c2ccccc21`, the Potency is reported as inconclusive [activator, full curve, poor fit]. For `O=C1C2=C(Nc3ccccc3SC2c2ccco2)c2ccccc21` (stereo not drawn), the Potency was inconclusive [activator, single point]. For `Cc1ccc2[nH]c(SCC(=O)N3CCOCC3)nc2c1C`, the Potency was inconclusive [activator, partial curve, poor fit]. In the case of `CCOc1ncccc1C(=O)OCC(=O)NC1CCCCCC1`, the “activity change, positive = activation” value is reported as inactive: -0.79%. In the case of `Cc1cccc(C)c1NC(=S)N/N=C/c1c(Cl)cccc1Cl`, the “activity change, positive = activation” value is reported as inactive: 4.11%. With `Nc1ccc2nc(CCc3ccccc3)[nH]c2c1` the Potency was inconclusive [activator, single point]. For `Cn1cnnc1SCC(=O)Nc1ccc(N2CCCCC2)cc1`, the Potency was inconclusive [activator, full curve, poor fit]. For `COc1ccc(/C=N/NC(=O)c2ccc[nH]2)cc1`, the Potency was inconclusive [activator, full curve, poor fit]. For `COc1ccc(Oc2c(Cl)cnn(-c3ccccc3)c2=O)cc1`, the Potency was inconclusive [activator, single point].
